The campaign covered roughly 150,000 compounds. About 540 (0.36%) showed an effect of 50% or more. The list shows a part of the results.

The % Inhibition is the change of the read-out against control, counted positive when it falls.

The subject of the experiment is Plasmodium falciparum. The experiment in a line: Primary screen in NF54 nanoGlo assay, in single point, at 2uM, 72h; a lower Z score goes with more inhibition. Format: functional, Erythrocyte. As to conditions: timepoint 72 hour.
In the case of `CCc1cccnc1NC(=O)[C@@H](OC)C(C)C`, the “% Inhibition” value is given as 4% and the Z score was -0.56.
Take `CC(C)[C@@H](O)Cc1nc(-c2ccc(Br)o2)no1`: the “% Inhibition” value is on record as -7% and the Z score was 0.59.
The corresponding values for `CCC1CN(CCn2cccn2)C(CC)CN1CCn1cccn1` (centres undefined) are -9% and 0.95.
The corresponding values for `Cc1occc1C(=O)N[C@H]1CCCCNC1=O` are 10% and -1.35.
The corresponding values for `CCN1CCN(C(=O)CCc2ccc(-c3ccc(C)cc3C)n2-c2ccc(CC#N)cc2)CC1` are -11% and 1.12.
As for `COc1cccc(C[C@H](C)NC(=O)c2nc(=O)[nH][nH]2)c1`, the “% Inhibition” value was 3% and the Z score is listed as -0.35.
Consider `CCN(C(C)=O)c1nc(CN2CC(n3cc(C)cn3)C2)cs1`, for which the “% Inhibition” value is -1% and the Z score worked out at 0.16.
Take `Cc1cc(Cl)ccc1Nc1nc(=O)[nH]nc1C`: the “% Inhibition” value is given as -6% and the Z score was 0.87.
Taken in the same sequence, the figures for `CCS(=O)(=O)N(C)CC(=O)N1CCN(C)c2ccc(Cl)cc21` were -10% and 1.47.
The corresponding values for `COc1cc(C)nc(N(C)Cc2csnc2OC)n1` are 5% and -0.75.
Consider `Cc1cc(C(=O)N2CCCc3ccc(C)c(Br)c32)ncn1`, for which the “% Inhibition” value is -2% and the Z score was 0.29.
Taken in the same sequence, the figures for `Cc1ccc(NC(=O)N2CCN(c3nccc(C(C)C)n3)CC2)c(C)n1` were -6% and 0.88.
For the molecule `N#Cc1cccnc1NCCc1nc2c(s1)COCC2`, the “% Inhibition” value was -13% and the Z score turned out to be 2.45.
The corresponding values for `CCN1CC[C@@]2(CCC1=O)CN(C1Cc3ccccc3C1)CCN2C` are 4% and -0.52.
With `CCOc1ccc(N2C[C@@H](C(=O)N3CCN(C)CC3)CC2=O)cc1`, the “% Inhibition” value is listed as 1% and the Z score is given as -0.17.
Taken in the same sequence, the figures for `C=CCOc1ccc(CNc2cnn(CC(=O)N3CC(C)OC(C)C3)c2)cc1Cl` (centres undefined) were -3% and 0.62.
The corresponding values for `CN(Cc1ccccc1)C(=O)N1CCC[C@H](n2ccnn2)CC1` are -6% and 0.89.
Taken in the same sequence, the figures for `COc1ccc(CC(=O)N2CCOC[C@H](Oc3cccnc3)C2)cc1` were -11% and 1.41.
As to `O=S(=O)(Nc1ccc(F)cc1Cl)c1ccc(-c2cnc(C3CC3)o2)cc1`, the “% Inhibition” value is -6% and the Z score is given as 1.14.
Taken in the same sequence, the figures for `O=C(Cc1ccc(-n2cnnc2)cc1)N1CC[C@H]1C1CC1` were 12% and -1.51.
The corresponding values for `O=C(Nc1cc(S(=O)(=O)N2CCOCC2)ccc1N1CCOCC1)[C@@H]1COc2ccccc2O1` are -7% and 1.05.
Taken in the same sequence, the figures for `COC(=O)N1CCC[C@H](c2nccn2CC2CCC2)C1` were -7% and 1.3.
Regarding `CCCN(C(=O)c1ccon1)C1CC(OCC)C1(C)C` (centres undefined), the “% Inhibition” value was -11% and the Z score was determined as 1.44.
As to `O=C(N[C@H](c1cccnc1)C(F)(F)F)c1cn(CC2CCCCC2)nn1`, the “% Inhibition” value is listed as -10% and the Z score was determined as 1.79.
With `CN(C)c1ccc(CNC(=O)c2cc(S(=O)(=O)N3CCCCCC3)ccc2Cl)cc1`, the “% Inhibition” value is recorded as -1% and the Z score stood at 0.08.
Taken in the same sequence, the figures for `O=C(C[C@@H]1NC(=O)NC1=O)Nc1nc2ccccc2s1` were 0% and -0.01.
Taken in the same sequence, the figures for `CN1CC[C@@H](c2nc(-c3cccnc3OCC(F)F)no2)S1(=O)=O` were 2% and -0.23.
As for `C=C(C)CN(CC)C(=O)CN1CCCC(C2(C)NC(=O)NC2=O)C1` (centres undefined), the “% Inhibition” value is -7% and the Z score amounted to 1.14.
The corresponding values for `COCCOCc1ncnn1-c1ccc(Cl)cc1C` are -12% and 2.14.
The corresponding values for `O=C1[C@@H]2Cc3c([nH]c4ccccc34)C(c3ccccc3)N2C(=O)CN1C1CCCCC1` (some centres undefined) are -8% and 1.52.
The corresponding values for `Cc1nc(CCC(=O)N(c2cccnc2)C(C)C)oc1-c1ccccc1` are -1% and 0.17.
In the case of `CNC(=O)NCC(=O)NC(C)(C)Cc1cccc(Br)c1`, the “% Inhibition” value is recorded as -10% and the Z score is 0.85.
The corresponding values for `CCN1C[C@@H](NC(=O)c2cccc(C(=O)NC3CC3)c2)CC1=O` are -5% and 0.91.
With `CCCCn1nc(C)nc1Cc1c(C)nc(CC)[nH]c1=O`, the “% Inhibition” value is 9% and the Z score is -1.77.
Turning to `CCn1cc(CN2CCN(Cc3ccccc3)[C@H]3CS(=O)(=O)C[C@H]32)cn1`, the “% Inhibition” value came to 0% and the Z score is recorded as 0.09.
Taken in the same sequence, the figures for `Cc1cc(CN2CCC(=O)N(C)CC2)c(C)c(CN2CCCC[C@@H]2C)c1` were 6% and -0.63.
The corresponding values for `COc1ccc([C@H](c2n(Cc3ccccc3)c(C)c(C)[n+]2[O-])C2C(=O)OC(C)(C)OC2=O)cc1CO` are -9% and 1.11.
Taken in the same sequence, the figures for `C[C@@H](CNC(=O)C(C)(C)C)c1ccccc1` were -10% and 0.9.
As to `CCOC1CC(NC(=O)Nc2cccnc2)C1(C)C` (centres undefined), the “% Inhibition” value was -4% and the Z score stood at 0.61.
The corresponding values for `COc1ccccc1OC1(C(=O)O)CCN(CC2CC2)CC1` are -13% and 2.52.
Consider `Cc1cc(C(=O)N[C@@H](C)C(N)=O)ccc1F`, for which the “% Inhibition” value is -1% and the Z score was determined as 0.09.
The corresponding values for `O=C(NCCCN1CCOCC1)c1ccc(N2C[C@H]3C[C@H](C2)[C@H]2CCCC(=O)N2C3)nc1` are 0% and 0.03.

(Values after ChEMBL document CHEMBL4888484, “Replenishing the malaria drug discovery pipeline: Screening and hit evaluation of the MMV Hit Generation Library 1 (HGL1) against asexual blood stage Plasmodium falciparum ,using a nano luciferase reporter read-out” (2022).)
